Test results taken from article PMC5700101.
Results are given in words; binding and its absence hold for the method and conditions named. Binding seen in cells or lysates may run through a third protein. Some entries that bind do so weakly or less than the wild type. Where a sequence is shown, tags or fusion partners need not be part of it.

Experiments:
[1] = biological target: T1, GST-PBD P384R (amino acids 350–576) (Drosophila) (UniProt P52304); experiment: pull-down; GST–PBD (WT or mutants) on sepharose beads incubated 2 h at 4 °C with clarified lysates of D-Mel2 cells transfected with Flag-KD + IDL (WT or mutants); 50 mM Tris-HCl pH 7.5, 150 mM NaCl, 1 mM EDTA, 10% glycerol, 0.2% Triton X-100; western blot; only the target purified
T1 sequence: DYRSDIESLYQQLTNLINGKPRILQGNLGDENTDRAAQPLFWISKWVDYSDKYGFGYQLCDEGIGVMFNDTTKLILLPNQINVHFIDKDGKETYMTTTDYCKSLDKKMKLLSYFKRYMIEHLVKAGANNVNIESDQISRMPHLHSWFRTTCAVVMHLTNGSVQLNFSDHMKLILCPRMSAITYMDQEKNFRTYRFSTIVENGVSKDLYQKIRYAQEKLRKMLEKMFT

[2] = biological target: T2, GST-PBD P384R/M527R (amino acids 350–576) (Drosophila) (UniProt P52304); experiment: as above
T2 sequence: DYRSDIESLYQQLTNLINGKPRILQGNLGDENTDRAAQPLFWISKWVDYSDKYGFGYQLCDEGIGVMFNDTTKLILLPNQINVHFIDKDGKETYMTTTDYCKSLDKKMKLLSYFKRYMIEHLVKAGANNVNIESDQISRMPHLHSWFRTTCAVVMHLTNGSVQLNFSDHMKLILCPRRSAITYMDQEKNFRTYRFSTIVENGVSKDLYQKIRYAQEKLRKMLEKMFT

[3] = biological target: T3, GST-PBD M527R (amino acids 350–576) (Drosophila) (UniProt P52304); experiment: as above
T3 sequence: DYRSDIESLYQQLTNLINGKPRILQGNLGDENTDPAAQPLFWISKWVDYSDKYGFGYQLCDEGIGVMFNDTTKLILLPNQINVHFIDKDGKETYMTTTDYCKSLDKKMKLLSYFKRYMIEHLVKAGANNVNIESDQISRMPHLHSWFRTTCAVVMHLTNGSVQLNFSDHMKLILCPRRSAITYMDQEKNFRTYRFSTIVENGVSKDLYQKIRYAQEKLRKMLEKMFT

[4] = biological target: T4, GST-PBD WT (Polo polo-box domain, amino acids 350–576) (Drosophila) (UniProt P52304); experiment: as above
T4 sequence: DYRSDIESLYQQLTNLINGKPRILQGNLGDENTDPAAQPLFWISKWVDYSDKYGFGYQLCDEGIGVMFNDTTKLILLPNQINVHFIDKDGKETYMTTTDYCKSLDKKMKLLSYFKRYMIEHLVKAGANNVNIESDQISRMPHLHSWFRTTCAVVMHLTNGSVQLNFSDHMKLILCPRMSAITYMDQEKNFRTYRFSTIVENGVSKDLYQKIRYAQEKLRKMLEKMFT

[5] = biological target: T5, Polo^WT-GFP (Drosophila) (UniProt P52304); experiment: condition: only cells treated with the Cdk1 inhibitor RO 3306 (10 μM); co-IP; as the anti-GFP immunoprecipitation, cells treated with the Cdk1 inhibitor RO 3306 (10 μM) for 1 h before lysis
T5 sequence: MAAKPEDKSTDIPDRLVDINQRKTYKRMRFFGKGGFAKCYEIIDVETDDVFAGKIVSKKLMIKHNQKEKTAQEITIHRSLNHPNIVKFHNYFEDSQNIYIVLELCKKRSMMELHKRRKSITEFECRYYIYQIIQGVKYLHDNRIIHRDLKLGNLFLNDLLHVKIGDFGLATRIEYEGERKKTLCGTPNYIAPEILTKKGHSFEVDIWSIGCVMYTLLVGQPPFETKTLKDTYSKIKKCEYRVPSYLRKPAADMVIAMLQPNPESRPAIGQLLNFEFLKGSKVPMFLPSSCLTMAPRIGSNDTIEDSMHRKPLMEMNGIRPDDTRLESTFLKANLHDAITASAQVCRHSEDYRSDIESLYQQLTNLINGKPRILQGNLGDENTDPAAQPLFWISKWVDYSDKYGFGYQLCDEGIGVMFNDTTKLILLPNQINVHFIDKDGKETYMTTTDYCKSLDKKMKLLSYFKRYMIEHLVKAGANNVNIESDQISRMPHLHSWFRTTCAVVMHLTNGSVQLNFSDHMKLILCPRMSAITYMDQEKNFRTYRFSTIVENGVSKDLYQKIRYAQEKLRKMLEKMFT

[6] = biological target: T5, Polo^WT-GFP (Drosophila); experiment: co-IP; lysates of D-Mel2 cells transfected with Myc-Cdc25 and Polo-GFP (WT or NLS7A), immunoprecipitation with anti-GFP antibodies and Protein A Dynabeads at 4 °C; western blot
[7] = biological target: T6, Luc-KD (KD–IDL of Polo, amino acids 1–349, N-terminally fused to RLucII), KD^WT (Drosophila) (UniProt P52304); experiment: FRET or BRET; BRET2 titration in live HEK293T cells: fixed Luc-KD plasmid (40 ng), PBD–GFP plasmid 0-400 ng, with a co-expressed Map205 fragment (residues 254–416, C-terminal Myc, 200 ng) that stabilizes the PBD–KD complex; coelenterazine 400a
T6 sequence: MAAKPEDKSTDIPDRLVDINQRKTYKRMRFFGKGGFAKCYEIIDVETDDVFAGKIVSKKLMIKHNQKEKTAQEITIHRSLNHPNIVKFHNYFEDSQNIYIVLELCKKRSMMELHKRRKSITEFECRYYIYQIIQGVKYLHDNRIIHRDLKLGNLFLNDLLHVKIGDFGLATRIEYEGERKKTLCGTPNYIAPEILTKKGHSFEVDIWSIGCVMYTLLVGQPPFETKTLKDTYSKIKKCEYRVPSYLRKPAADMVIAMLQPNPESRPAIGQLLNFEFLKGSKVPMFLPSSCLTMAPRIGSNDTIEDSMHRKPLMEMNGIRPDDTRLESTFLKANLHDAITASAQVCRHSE

[8] = biological target: T7, Luc-KD^T182A (Drosophila) (UniProt P52304); experiment: as above
T7 sequence: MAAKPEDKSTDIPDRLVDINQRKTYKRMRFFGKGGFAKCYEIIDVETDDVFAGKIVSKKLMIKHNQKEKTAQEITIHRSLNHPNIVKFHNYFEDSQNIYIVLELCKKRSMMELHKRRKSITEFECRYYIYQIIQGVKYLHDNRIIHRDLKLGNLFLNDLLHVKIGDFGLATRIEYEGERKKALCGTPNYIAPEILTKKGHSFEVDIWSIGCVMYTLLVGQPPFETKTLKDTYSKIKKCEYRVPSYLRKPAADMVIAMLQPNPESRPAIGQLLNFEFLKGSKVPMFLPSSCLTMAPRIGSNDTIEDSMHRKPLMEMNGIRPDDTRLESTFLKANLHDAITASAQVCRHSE

B1: Flag-KD + IDL^WT (Polo kinase domain with the interdomain linker, amino acids 1–349) (domain or fragment, UniProt P52304 1-349)
chain: MAAKPEDKSTDIPDRLVDINQRKTYKRMRFFGKGGFAKCYEIIDVETDDVFAGKIVSKKLMIKHNQKEKTAQEITIHRSLNHPNIVKFHNYFEDSQNIYIVLELCKKRSMMELHKRRKSITEFECRYYIYQIIQGVKYLHDNRIIHRDLKLGNLFLNDLLHVKIGDFGLATRIEYEGERKKTLCGTPNYIAPEILTKKGHSFEVDIWSIGCVMYTLLVGQPPFETKTLKDTYSKIKKCEYRVPSYLRKPAADMVIAMLQPNPESRPAIGQLLNFEFLKGSKVPMFLPSSCLTMAPRIGSNDTIEDSMHRKPLMEMNGIRPDDTRLESTFLKANLHDAITASAQVCRHSE
B1 was tested, and the binding [1] was “no binding”, the binding [2] was “no binding” and the binding [3] was “no binding”. For the same binder, the binding [4] was “binds”.

B2: Myc-Cdc25(String) (enzyme, UniProt P20483 1-479)
chain: MLWETIVEENNCSMDCNISNNTSSSSSINKMSGSRRARRSLELMSMDQEELSFYDDDVVPQDQQRSASPELMGLLSPEGSPQRFQIVRQPKILPAMGVSSDHTPARSFRIFNSLSSTCSMESSMDDEYMELFEMESQSQQTALGFPSGLNSLISGQIKEQPAAKSPAGLSMRRPSVRRCLSMTESNTNSTTTPPPKTPETARDCFKRPEPPASANCSPIQSKRHRCAAVEKENCPAPSPLSQVTISHPPPLRKCMSLNDAEIMSALARSENRNEPELIGDFSKAYALPLMEGRHRDLKSISSETVARLLKGEFSDKVASYRIIDCRYPYEFEGGHIEGAKNLYTTEQILDEFLTVQQTELQQQQNAESGHKRNIIIFHCEFSSERGPKMSRFLRNLDRERNTNAYPALHYPEIYLLHNGYKEFFESHVELCEPHAYRTMLDPAYNEAYRHFRAKSKSWNGDGLGGATGRLKKSRSRLML
In the case of B2, the binding [5] is reported as “no binding” and the binding [6] is reported as “binds”.

B3: Flag-KD + IDL^T182A (domain or fragment, UniProt P52304 1-349)
chain: MAAKPEDKSTDIPDRLVDINQRKTYKRMRFFGKGGFAKCYEIIDVETDDVFAGKIVSKKLMIKHNQKEKTAQEITIHRSLNHPNIVKFHNYFEDSQNIYIVLELCKKRSMMELHKRRKSITEFECRYYIYQIIQGVKYLHDNRIIHRDLKLGNLFLNDLLHVKIGDFGLATRIEYEGERKKALCGTPNYIAPEILTKKGHSFEVDIWSIGCVMYTLLVGQPPFETKTLKDTYSKIKKCEYRVPSYLRKPAADMVIAMLQPNPESRPAIGQLLNFEFLKGSKVPMFLPSSCLTMAPRIGSNDTIEDSMHRKPLMEMNGIRPDDTRLESTFLKANLHDAITASAQVCRHSE
B3 was tested, and the binding [4] was “binds”.

B4: PBD–GFP (PBD of Polo, amino acids 350–576, C-terminally fused to GFP10) (domain or fragment, UniProt P52304 350-576)
chain: DYRSDIESLYQQLTNLINGKPRILQGNLGDENTDPAAQPLFWISKWVDYSDKYGFGYQLCDEGIGVMFNDTTKLILLPNQINVHFIDKDGKETYMTTTDYCKSLDKKMKLLSYFKRYMIEHLVKAGANNVNIESDQISRMPHLHSWFRTTCAVVMHLTNGSVQLNFSDHMKLILCPRMSAITYMDQEKNFRTYRFSTIVENGVSKDLYQKIRYAQEKLRKMLEKMFT
For B4, the binding [7] was “binds” and the binding [8] was “binds”.
